# Article PMC6919601, “Identification of Plasmodium dipeptidyl aminopeptidase allosteric inhibitors by high throughput screening” (PLoS ONE, 2019)
# In all, about 110,000 compounds went through this assay and about 230 (0.21%) showed an effect of 50% or more. The list shows a part of the results.
# Molecular target: DPAP1 (Plasmodium falciparum, UniProt Q8IIJ9)
# Assay: primary screen, percent inhibition; read by cleavage of a fluorogenic dipeptide substrate; higher = more effect of the substance
# Design: species or system P. falciparum D10 trophozoite lysates; single well
# 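Further: 30 min substrate incubation versus DMSO and 10 µM JCP410 controls.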
# DPAP1, sequence (Q8IIJ9 whole entry, looked up): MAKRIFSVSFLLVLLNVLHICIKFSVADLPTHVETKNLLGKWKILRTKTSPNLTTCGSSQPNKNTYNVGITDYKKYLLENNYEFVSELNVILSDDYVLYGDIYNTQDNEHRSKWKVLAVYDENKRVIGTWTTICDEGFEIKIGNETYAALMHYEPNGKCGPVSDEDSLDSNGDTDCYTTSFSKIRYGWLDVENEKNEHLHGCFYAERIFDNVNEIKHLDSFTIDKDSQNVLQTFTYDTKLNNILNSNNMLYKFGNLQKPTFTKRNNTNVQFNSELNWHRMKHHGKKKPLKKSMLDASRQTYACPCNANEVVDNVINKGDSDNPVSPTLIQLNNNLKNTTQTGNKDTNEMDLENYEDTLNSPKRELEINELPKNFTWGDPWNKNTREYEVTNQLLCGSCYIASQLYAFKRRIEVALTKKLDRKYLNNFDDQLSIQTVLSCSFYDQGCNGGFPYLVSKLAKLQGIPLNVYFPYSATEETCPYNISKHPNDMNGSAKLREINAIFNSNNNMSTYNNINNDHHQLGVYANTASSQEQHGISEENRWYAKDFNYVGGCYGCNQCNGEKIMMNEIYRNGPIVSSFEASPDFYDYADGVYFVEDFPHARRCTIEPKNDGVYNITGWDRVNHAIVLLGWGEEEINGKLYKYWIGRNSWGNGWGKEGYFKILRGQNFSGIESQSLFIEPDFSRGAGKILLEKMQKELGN
row,SMILES,% Inhibition @ 10 uM [%]
1,Cc1ccccc1NC(=O)CC1(c2ccccc2)C(=O)c2ccccc2C1=O,1.7
2,COCCCNC(=O)c1c(C)oc2ncn(C)c(=O)c12,-2.19
3,CCCN1CCC(NCCc2ccccc2F)CC1,3.18
4,COc1ccc(-c2cc3nc(C)cc(O)n3n2)cc1,3.16
5,COc1ccc2c(c1OC)C(=O)OC2Nc1cc(C)ccn1 (stereo not shown),-1.47
6,CC(C)C(C(=O)Nc1ccc(Br)cc1)N1C(=O)c2ccccc2C1=O (stereo not shown),1.96
7,O=C1NC(=O)C(=Cc2ccccc2OCCO)C(=O)N1,-0.597
8,Cc1ccccc1NCN1C(=O)C2CCCCC2C1=O (stereo not shown),3.91
9,CCc1ccc2ncc(S(=O)(=O)c3ccccc3)c(N3CCOCC3)c2c1,-7.84
10,CCC(C)(Nc1ccc(Cl)cc1)c1nnnn1C(/C=C\c1ccc(Cl)cc1Cl)C(C)(C)C (stereo not shown),-1.29
11,CCC(CC)NCc1c[nH]c2ccccc12,-0.034
12,Cc1nn(C(C)C(=O)NCCCN2CCc3ccccc3C2)c(=O)c2c1sc1ccccc12 (stereo not shown),-6.3
13,O=C(CN(Cc1ccc(F)cc1)S(=O)(=O)c1ccccc1)Nc1ccccc1Br,-6.81
14,O=S(=O)(c1ccc(C2CCCCC2)cc1)N1CCn2c(nc3ccccc32)C1,0.66
15,O=C(NCCCc1ccccc1)c1cnc2ccccn2c1=O,3.32
16,CCN1C(=O)/C(=C\c2ccc(C)cc2)C(C(=O)OC)=C1C,-4.93
17,O=C(Nc1ccccc1C(=O)N1CCCCCC1)c1ccc(F)cc1,2.49
18,CCO/C(O)=C1\C(C)=Nc2nnnn2C1c1ccc(OC)c(Br)c1 (stereo not shown),0.565
19,CC1=C(C(=O)OCC2CCCO2)C(c2ccc(Cl)cc2)NC(=O)N1 (stereo not shown),-2.2
20,Cc1ccc(OC2OC(CO)C(O)C(O)C2O)cc1C (stereo not shown),-5.32
21,Cc1cc(NC(=O)CSc2nc3nccnc3c(=O)n2CC2CCCO2)[nH]n1 (stereo not shown),2.25
22,O=C1CC(C2CCCO2)C(=O)N1c1ccccc1 (stereo not shown),-4.13
23,O=C(NCc1cccc(Cl)c1)c1cc2ccccn2n1,-0.0115
24,O=C(CCN1C(=O)c2ccccc2C1=O)N1CCCC1,1.89
25,Cc1oc2c(c1C(=O)NCc1ccccn1)C(=O)c1ccccc1C2=O,-7.35
26,O=[N+]([O-])c1ccc(N2CCN(CC(O)COc3ccccc3)CC2)cc1 (stereo not shown),0.467

row,SMILES,% Inhibition @ 10 uM [%]
1,O=C(CSc1nnc(-c2cccnc2)n1-c1ccccc1)NCc1ccccc1,-0.703
2,CC1=C(C(=O)N2CCCCC2)C(c2ccc(Cl)cc2)C2=C(O)CC(C)(C)CC2=N1 (stereo not shown),-0.864
3,C=CCn1c(Oc2ccccc2Cl)nc2c1c(=O)n(C)c(=O)n2C,-2.67
4,CCCCOc1ccc(C(C)(C#N)CC#N)cc1 (stereo not shown),2.51
5,CC(=O)Nc1nc2ccc(NC(=O)c3sc4ccccc4c3Cl)cc2s1,5.89
6,O=C(CSc1cn(CC(=O)N2CCOCC2)c2ccccc12)NCc1ccccc1,-3.13
7,O=C(O)c1cc(Br)ccc1NS(=O)(=O)c1cccc2nsnc12,3.12
8,CC(C)(C)C(/C=C\c1ccc(Cl)cc1Cl)n1nnnc1C(C)(C)N1CCOCC1 (stereo not shown),-3.92
9,CCOc1ccccc1CNc1ncnc2onc(C)c12,-5.16
10,c1ccc(CCNc2cc(-c3ccccc3)nc3nncn23)cc1,-2.57
11,COCCNC(=O)CNC(=S)N(Cc1ccccc1)Cc1cccs1,-0.406
12,c1cnc2[nH]c(SCCN3CCOCC3)nc2c1,-5.37
13,N#C/C(=C(/O)c1ccc(Cl)cc1)c1nc2ccccc2[nH]1,-1.44
14,O=C(C1CCN(S(=O)(=O)N2CCCCCC2)CC1)N1CCC2(CC1)OCCO2,-7.85
15,OC(CN1CC=C(Cc2ccccc2)CC1)c1ccccc1 (stereo not shown),0.605
16,COc1ccc(CNC(=O)c2cc(=O)c3cc(C)cc(C)c3o2)cc1,-5.08
17,c1ccc2c(c1)ncn2CCN1CCCCC1,-1.54
18,Cc1ccc2oc(=O)c3cnn(CC(=O)NCCN(C)C4CCCCC4)c3c2c1,-0.0115
19,Cc1cccc(OCCCCn2ccnc2)c1C,2.7
20,COc1ccc(Nc2ccc(Cl)cc2)c(C(=O)O)c1,-6.36
21,Cc1ccc(NS(=O)(=O)c2ccc(Cl)cc2)c(C)c1,0.912
22,O=C(CCCn1c2ccccc2c2cnnc(O)c21)NCc1cccc(Cl)c1,1.38
23,CC(C)c1ccc2c(c1)[C@H]1OCC[C@H]1[C@@H](c1cccs1)N2,-0.872
24,COc1ccc(-c2noc(CN(C)S(=O)(=O)c3ccc(Br)cc3)n2)cc1,2.21
25,CCc1ccc(C2C(C#N)=C(N)Oc3c2c(C)nn3-c2ccc(C)cc2)cc1 (stereo not shown),6.42
26,Cn1nc(C(=O)N(Cc2ccco2)C2CCCCC2)c2c1-c1ccccc1OC2,3.3

row,SMILES,% Inhibition @ 10 uM [%]
1,Cc1ccc(CSc2nnc(-n3c(=O)c(C#N)cc4c(=O)n5ccccc5nc43)s2)cc1,-0.551
2,Cc1cccc(C2C(C#N)=C(N)Oc3[nH]nc(-c4ccc5c(c4)OCO5)c32)c1 (stereo not shown),2.38
3,N#CC1=C2SCN(C3CCCCC3)CN2C(=O)CC1c1cccc2ccccc12 (stereo not shown),53.8
4,CSCCC(NC(=O)c1ccc(C#CC(C)(C)O)cc1)C(=O)O (stereo not shown),-2.42
5,CCC(=O)N1C(C(=O)NCCCN2CCCCC2)CSC12CCN(C)CC2 (stereo not shown),3.49
6,Cc1nc2c(C(=O)NCc3ccc4c(c3)OCO4)cnn2c(O)c1Cl,-2.14
7,CC1NC(C(=O)O)Cc2c1[nH]c1ccccc21 (stereo not shown),-4.02
8,Cc1ccc(C(=O)CCC(=O)Nc2ccccc2F)cc1,-1.61
9,O=C(O)c1ccccc1C(=O)NCCc1ccc(Cl)cc1,1.16
10,Cc1ccc2oc(O)cc(=O)c2c1O,-3.53
11,CC(NC(=O)C(c1ccccc1)c1ccccc1)c1ccccc1 (stereo not shown),3.74
12,COc1ccccc1CNS(=O)(=O)c1ccc2oc(C(=O)O)c(C)c2c1,2.59
13,O=c1c([N+](=O)[O-])cn(-c2ccc(Cl)cc2)c2cc(Cl)ccc12,-2.7
14,CCC(Sc1ccccn1)C(=O)Nc1ccc(Cl)cn1 (stereo not shown),10
15,COC(=O)C1=C(C)N=c2s/c(=C\c3c(F)cccc3Cl)c(=O)n2C1c1cccs1 (stereo not shown),1.67
16,CC(Cc1ccccc1)NCc1ccco1 (stereo not shown),3.15
17,CCOc1ccc(C2CC(=O)NC(SC)=C2C#N)cc1 (stereo not shown),1.13
18,Nc1ccc(C2=CCCc3nonc32)c2nonc12,2.8
19,CCOc1ccc(C2CC(=O)Nc3nc(SCc4ccc(F)cc4)nc(O)c32)cc1OC (stereo not shown),-1.11
20,Cc1ccc(S(=O)(=O)n2nc(-c3ccccc3)nc2NCc2ccco2)cc1,2.31
21,COc1cccc(NC(=O)c2cc(F)c(Cl)nc2Cl)c1,0.0999
22,O=C1c2ccc(F)cc2C(=O)N1c1ccncc1,2.8
23,CCCNCCOC(c1ccccc1)c1ccccc1,0.343
24,Cc1cc(C)c(NC(=O)CSc2nc(N)cc(O)n2)c(C)c1,-5.23
25,COc1ccc(Cl)cc1C(=O)N1CC(C)N(C(=O)c2cc(Cl)ccc2OC)CC1C (stereo not shown),1.28
26,COc1cccc(CN2CCN(Cc3ccccc3F)CC2)c1OC,3.8

row,SMILES,% Inhibition @ 10 uM [%]
1,CCOC(=O)c1ccc(Oc2coc3cc(O)ccc3c2=O)cc1,2.31
2,Cn1c2ccccc2c2c(C(=O)NC3CCCCC3)cn(C3CCCCC3)c(=O)c21,-3.39
3,COc1ccc(OC)c(C2C3=C(O)CCCC3=Nc3ccc4ncccc4c32)c1 (stereo not shown),2.36
4,CCc1c(C)sc(NC(=O)c2ccc(C(C)C)cc2)c1C(N)=O,15.9
5,CCSc1nc(-c2ccc(C)cc2)nc2c1Cc1c(CO)cnc(C)c1O2,-1.11
6,O=C(NCCCN1CCN(C2CCCCC2)CC1)C1CCN(c2nnc(-n3cccc3)s2)CC1,1.15
7,O=C(O)c1c(CNCCCN2CCCC2=O)c2ccccc2n1Cc1ccccc1Cl,0.277
8,Cc1cc(C)c(OCC(=O)N(Cc2cccc(F)c2)C2CCS(=O)(=O)C2)c(C)c1 (stereo not shown),-4.95
9,CN1CCN(Cc2ccccc2Cl)CC1,-5.57
10,C=C(C)CN(CC)Cc1ccncc1,-4.14
11,CC1=C(C(=O)Nc2cccnc2)C(c2ccccc2F)n2nnnc2N1 (stereo not shown),0.279
12,N#CCNC(=O)C1(NC(=O)N2CCN(c3ccccn3)CC2)CCCCC1,-1.41
13,CC(C)N(Cc1ccccc1)C(=O)c1cccs1,4.03
14,CCc1ccc(-n2nc(C)c3c(C(F)(F)F)cc(=O)n(CC(=O)NCc4ccc(F)cc4)c32)cc1,1.63
15,COc1cccc(NC(=O)CN(C)S(=O)(=O)c2ccc(F)cc2)c1,-6.02
16,Cc1ccc(OCC(=O)N(Cc2sccc2C)C2CCS(=O)(=O)C2)cc1C (stereo not shown),-1.11
17,CCOc1c(Cl)cc(C(=O)N(Cc2ccco2)C2CCS(=O)(=O)C2)cc1Cl (stereo not shown),0.569
18,CCn1cc(C(=O)O)c(=O)c2cc(F)c(N3CCOCC3)cc21,-2.2
19,CN(Cc1ccccc1)c1ncnc2c1nc1n2CCCCC1,-0.0255
20,COc1cc(C(=O)N(Cc2ccccc2)Cc2ccccc2)cc(OC)c1OC,-0.85
21,O=C(NCc1ccco1)c1nc(CS(=O)(=O)c2ccccc2)no1,-2.05
22,CCn1c(C(=O)N2CCc3ccccc3C2)cc2oc3ccccc3c21,-3.34
23,O=C(Nc1ccc(Cl)cc1)C(=O)NC1CCCCC1,1.29
24,OCC1CCCN1Cc1cc(F)ccc1F (stereo not shown),-0.0648
25,CC(=O)N/C(=C\c1ccccc1)C(=O)NCc1ccc(C)cc1,-0.256
